Test results published in PubChem BioAssay (NCATS).
The inconclusive results got no clear call from the source; some entries with a clear call stand among them for comparison. For some of these results: A potency beside an inconclusive call is a rough fit, not a confirmed value. The source made the active and inactive calls. Unless noted, the call rests on the fitted dose curve; in most records, active means well fitted curve in the direction sought with a large enough effect; inconclusive means small, poorly fitted or top-dose-only effect, or another doubt; inactive means no such curve, though single readings can be large; an effect the other way counts as inactive or inconclusive.

Legend:
[1] = Primary qHTS for inhibitors of nuclear receptor binding SET domain protein 2 (NSD2) in an RCH-ACV wild type WT cells (2C) (AID 1645877); settings: activity change, negative = cell killing: at 44.9 µM (top of the series) unless noted; further: nearly all actives have a fitted effect of over 70% in size
[2] = target: Phospholipid hydroperoxide glutathione peroxidase GPX4 (Homo sapiens) (UniProt P36969); assay: Primary qHTS Assay for Inhibitors of Recombinant Selenoprotein Glutathione Peroxidase 4 (GPX4) (AID 1845192); further: nearly all actives have a fitted effect of over 65% in size
Sequence of UniProt P36969 (P36969 whole entry, looked up): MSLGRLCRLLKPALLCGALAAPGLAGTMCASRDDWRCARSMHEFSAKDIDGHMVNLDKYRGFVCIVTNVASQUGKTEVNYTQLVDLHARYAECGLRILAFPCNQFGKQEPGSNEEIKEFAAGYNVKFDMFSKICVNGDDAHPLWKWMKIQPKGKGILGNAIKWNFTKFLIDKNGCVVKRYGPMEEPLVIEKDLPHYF
Procedure, shortened: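 NADPH consumption followed by fluorescence at 340/450 nm, t=0 and after 15 min at room temperature. Reaction started with cumene hydroperoxide (0.5 mM final) after 30 min compound–GPX4 preincubation; final 200 nM GPX4, 100 nM GR, 1 mM GSH, 0.5 mM NADPH.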

[3] = Quantitative High-Throughput drug screen in 47 multiple myeloma cell lines against the NCATS MIPE library collection: Delta47_JCRB cell viability assay (AID 1918925; further: nearly all actives have a fitted effect of over 45% in size); settings: Delta47 myeloma viability, CellTiter-Glo ATP, 48 h; viability (% of DMSO): at 45.8 µM (top of the series)
Procedure, shortened: (§1)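 Approved and investigational drugs from MIPE 4.0 were added by pin tool to 500 cells per well. After 48 hours at 37C, ATP-based CellTiter-Glo luminescence indicated remaining viability.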

[4] = Quantitative High-Throughput drug screen in 47 multiple myeloma cell lines against the NCATS MIPE library collection: EJM_DSMZ cell viability assay (AID 1918926; further: nearly all actives have a fitted effect of over 30% in size)
Procedure, shortened: as §1

[5] = Quantitative High-Throughput drug screen in 47 multiple myeloma cell lines against the NCATS MIPE library collection: ARP1_JJKsccF8 cell viability assay (AID 1918928; further: nearly all actives have a fitted effect of over 40% in size)
Procedure, shortened: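 Each line was plated at 500 cells/well and treated 48 h with library drugs. Viability came from CellTiter-Glo luminescence relative to DMSO and cell-free medium controls.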

[6] = Quantitative High-Throughput drug screen in 47 multiple myeloma cell lines against the NCATS MIPE library collection: Karpas417_ECACC cell viability assay (AID 1918961); settings: Karpas417 myeloma viability, CellTiter-Glo ATP luminescence, 48 h; viability (% of DMSO): at 45.8 µM (top of the series)
Procedure, shortened: (§2)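 Inhibition of cell viability is measured here. Each line was plated at 500 cells per well, treated with MIPE 4.0 drugs, kept 48 hours at 37C, then assayed for ATP content by CellTiter-Glo luminescence.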

[7] = Quantitative High-Throughput drug screen in 47 multiple myeloma cell lines against the NCATS MIPE library collection: KHM11_PLB cell viability assay (AID 1918962); settings: KHM11 myeloma cell viability, CellTiter-Glo ATP luminescence, 48 h; series mostly up to 45.8 µM; further: nearly all actives have a fitted effect of over 35% in size
Procedure, shortened: as §1

[8] = Quantitative High-Throughput drug screen in 47 multiple myeloma cell lines against the NCATS MIPE library collection: JIM1_ECACC cell viability assay (AID 1918964)
Procedure, shortened: as §1

[9] = Quantitative High-Throughput drug screen in 47 multiple myeloma cell lines against the NCATS MIPE library collection: INA6_PLB cell viability assay (AID 1918965; further: nearly all actives have a fitted effect of over 55% in size); settings: INA6 myeloma viability, CellTiter-Glo ATP luminescence, 48 h; viability (% of control): at 45.8 µM (top of the series)
Procedure, shortened: as §2

[10] = Quantitative High-Throughput drug screen in 47 multiple myeloma cell lines against the NCATS MIPE library collection: Karpas25_ECACC cell viability assay (AID 1918968; further: nearly all actives have a fitted effect of over 35% in size); settings: Karpas25 myeloma viability, CellTiter-Glo ATP, 48 h; viability (% of control): at 45.8 µM (top of the series)
Procedure, shortened: as §1

[11] = Quantitative High-Throughput drug screen in 47 multiple myeloma cell lines against the NCATS MIPE library collection: KMS27_JCRB cell viability assay (AID 1918970); settings: KMS27 myeloma cells, CellTiter-Glo ATP viability, 48 h; viability (% of DMSO): at 45.8 µM (top of the series); further: nearly all actives have a fitted effect of over 30% in size
Procedure, shortened: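 KMS27_JCRB myeloma cells, 500 per well, exposed 48 h at 37 C, 5% CO2 to MIPE 4.0 compounds. Viability from ATP by CellTiter-Glo luminescence, normalized to DMSO (100%) and medium-only (0%) wells.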

[12] = Quantitative High-Throughput drug screen in 47 multiple myeloma cell lines against the NCATS MIPE library collection: KMS12BM_JCRB cell viability assay (AID 1918971); further: nearly all actives have a fitted effect of over 35% in size
Procedure, shortened: as §1

[13] = Quantitative High-Throughput drug screen in 47 multiple myeloma cell lines against the NCATS MIPE library collection: KMS20_JCRB cell viability assay (AID 1918973); settings: CellTiter-Glo ATP, 48 h; viability (% of DMSO): at 45.8 µM (top of the series); further: nearly all actives have a fitted effect of over 45% in size
Procedure, shortened: as §1

[14] = Quantitative High-Throughput drug screen in 47 multiple myeloma cell lines against the NCATS MIPE library collection: KMS21BM_JCRB cell viability assay (AID 1918974); settings: ATP luminescence, 48 h; viability: at 45.8 µM (top of the series)
Procedure, shortened: as §1

[15] = Quantitative High-Throughput drug screen in 47 multiple myeloma cell lines against the NCATS MIPE library collection: MOLP8_DSMZ cell viability assay (AID 1918977); further: nearly all actives have a fitted effect of over 45% in size
Procedure, shortened: (§3)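 ATP-based luminescence (CellTiter-Glo, 5 min RT incubation) quantified surviving cells following two days' treatment with MIPE 4.0 agents at 37 °C, 5% CO2.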

[16] = Quantitative High-Throughput drug screen in 47 multiple myeloma cell lines against the NCATS MIPE library collection: NCIH929_DSMZ cell viability assay (AID 1918978); settings: NCI-H929 myeloma viability, CellTiter-Glo ATP, 48 h; series mostly up to 45.8 µM; further: nearly all actives have a fitted effect of over 35% in size
Procedure, shortened: as §3

[17] = Quantitative High-Throughput drug screen in 47 multiple myeloma cell lines against the NCATS MIPE library collection: OCIMY1_PLB cell viability assay (AID 1918979); further: nearly all actives have a fitted effect of over 35% in size
Procedure, shortened: as §3

[18] = Quantitative High-Throughput drug screen in 47 multiple myeloma cell lines against the NCATS MIPE library collection: MM1R_ATCC cell viability assay (AID 1918981); further: nearly all actives have a fitted effect of over 35% in size
Procedure, shortened: as §3

[19] = Quantitative High-Throughput drug screen in 47 multiple myeloma cell lines against the NCATS MIPE library collection: LP1_DSMZ cell viability assay (AID 1918982); further: nearly all actives have a fitted effect of over 35% in size
Procedure, shortened: as §3

[20] = Quantitative High-Throughput drug screen in 47 multiple myeloma cell lines against the NCATS MIPE library collection: L363_DSMZ cell viability assay (AID 1918984); settings: L363 myeloma viability, CellTiter-Glo ATP luminescence, 48 h; viability (% of control): at 45.8 µM (top of the series); further: nearly all actives have a fitted effect of over 40% in size
Procedure, shortened: as §3

[21] = Quantitative High-Throughput drug screen in 47 multiple myeloma cell lines against the NCATS MIPE library collection: KMS34_JCRB cell viability assay (AID 1918985); further: nearly all actives have a fitted effect of over 40% in size
Procedure, shortened: as §3

[22] = Quantitative High-Throughput drug screen in 47 multiple myeloma cell lines against the NCATS MIPE library collection: SKMM1_PLB cell viability assay (AID 1919863); settings: SKMM1 myeloma viability, CellTiter-Glo ATP, 48 h; viability: stronger effect = lower value; further: nearly all actives have a fitted effect of over 35% in size
Procedure, shortened: as §3

[23] = Quantitative High-Throughput drug screen in 47 multiple myeloma cell lines against the NCATS MIPE library collection: XG6_PLB cell viability assay (AID 1919865); settings: XG6 myeloma viability, CellTiter-Glo ATP luminescence, 48 h; viability (% of control): at 45.8 µM (top of the series); further: nearly all actives have a fitted effect of over 40% in size
Procedure, shortened: as §3

[24] = Quantitative High-Throughput drug screen in 47 multiple myeloma cell lines against the NCATS MIPE library collection: VP6_DJ cell viability assay (AID 1919867); further: nearly all actives have a fitted effect of over 40% in size
Procedure, shortened: as §3

[25] = Quantitative High-Throughput drug screen in 47 multiple myeloma cell lines against the NCATS MIPE library collection: UTMC2_PLB cell viability assay (AID 1919868); settings: CellTiter-Glo ATP luminescence, 48 h; series mostly up to 45.8 µM; further: nearly all actives have a fitted effect of over 55% in size
Procedure, shortened: as §3

[26] = Quantitative High-Throughput drug screen in 47 multiple myeloma cell lines against the NCATS MIPE library collection: KMS28BM_JCRB cell viability assay (AID 1919874); further: nearly all actives have a fitted effect of over 35% in size
Procedure, shortened: as §3

[27] = qHTS for identification of novel therapeutic agents for treatment of microphthalmiaassociated transcription factor (MiT) renal cell carcinoma (RCC) (AID 1963991; calls by dose curve); settings: TFE3-RCC UOK109 viability, CellTiter-Glo, 48 h; active = Z-AUC below -0.8 in all three lines
Procedure, shortened: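 Three TFE3-fusion RCC cell lines (UOK109, UOK124, UOK145), 500 cells/well, were exposed to the 1912-compound MIPE 4.0 library for 48 hours at 37 C. Viability was read by CellTiter-Glo luminescence, normalised to DMSO (100%) and empty wells (0%), with 11-concentration curve fits.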

HEK293 = assay: Cytotoxic Profiling of Annotated Libraries Using Quantitative High-Throughput Screening (AID 1296008); settings: Five cell lines viability, CellTiter-Glo ATP luminescence, 48-72 h; max response: stronger effect = lower value; further: nearly all actives have a fitted effect of over 60% in size
Procedure, shortened: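 Cytotoxicity was measured as CellTiter-Glo ATP luminescence, read after 10 min at room temperature. Compound treatment of the cells lasted 48 or 72 hr at 37 degrees Celsius in a qHTS format.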

Measured: Potency
Potency means the concentration at half of the fitted maximal effect; tags describe the fitted curve by direction and shape.

COC(=O)C1C2CC3c4[nH]c5cc(OC)ccc5c4CCN3CC2CC(OC(=O)c2cc(OC)c(OC)c(OC)c2)C1OC (stereo not drawn)
inconclusive: [1] 33.2 µM [inhibitor, single point] | [2] 20.2 µM [inhibitor, partial curve, poor fit] | [3] 26.4 µM [cytotoxic, single point] | [4] 14.8 µM [cytotoxic, partial curve, poor fit] | [5] 29.6 µM [cytotoxic, partial curve] | [6] 16.6 µM [cytotoxic, partial curve, poor fit] | [7] 9.35 µM [cytotoxic, partial curve, poor fit] | [8] 29.6 µM [cytotoxic, single point] | [9] 23.5 µM [cytotoxic, single point] | [11] 33.2 µM [cytotoxic, single point] | [12] 14.8 µM [cytotoxic, partial curve, poor fit] | [13] 20.9 µM [cytotoxic, partial curve, poor fit] | [14] 18.7 µM [cytotoxic, partial curve, poor fit] | [15] 37.2 µM [cytotoxic, single point] | [16] 26.4 µM [cytotoxic, single point] | [17] 33.2 µM [cytotoxic, single point] | [19] 0.001 µM [cytotoxic] | [20] 20.9 µM [cytotoxic, partial curve, poor fit] | [21] 23.5 µM [cytotoxic, partial curve, poor fit] | [22] 26.4 µM [cytotoxic, partial curve, poor fit] | [23] 33.2 µM [cytotoxic, single point] | [24] 37.2 µM [cytotoxic, single point] | [25] 6.62 µM [rising, partial curve, poor fit] | [27] 20.9 µM [falling, single point] | HEK293 = 37.2 µM [inhibitor, single point]
active: [10] 23.5 µM | [18] 13.2 µM | [26] 20.9 µM
